# Measured values published in the supplement of paper PMC3334620.
# In all, about 33,000 sequences were measured (“E-score (-0.5 to 0.5)”: median about -0.017, highest 2% from about 0.3 on). Some of the results follow.
# Biological target: T1, Sut1 (UniProt P53032)
# T1 sequence: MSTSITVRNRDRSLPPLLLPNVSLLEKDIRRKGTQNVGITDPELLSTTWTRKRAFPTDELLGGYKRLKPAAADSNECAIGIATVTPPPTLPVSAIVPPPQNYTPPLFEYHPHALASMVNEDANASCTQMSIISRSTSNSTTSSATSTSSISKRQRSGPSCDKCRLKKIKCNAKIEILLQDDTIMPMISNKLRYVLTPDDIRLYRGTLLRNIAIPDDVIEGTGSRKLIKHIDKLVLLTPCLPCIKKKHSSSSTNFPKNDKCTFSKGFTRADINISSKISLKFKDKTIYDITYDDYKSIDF
# Assay: PBM E-score (8-mer binding enrichment) (E-score (-0.5 to 0.5)); higher = stronger / more preferred TF binding; most listed sequences are background and not binding sites
# Conditions: protein concentration: 200 nM; construct: GST-full length
# Procedure, shortened: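 Universal all-10-mer Agilent arrays, fresh or stripped once, were converted to double-stranded form by primer extension. GST-tagged yeast transcription factors from PURExpress in vitro transcription/translation, full-length or DNA-binding domain only, were applied at about 100-200 nM and detected with fluorescent anti-GST. After masliner normalisation, the Universal PBM Analysis Suite scored each ungapped eight-base word together with its reverse complement by E-score.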
row,Sequence,PBM E-score
1,GCACACGA,-0.177
2,ATCGCTAA,0.00759
3,ACACAACG,0.0126
4,ATCGGTGC,-0.0848
5,AATCATTC,0.202
6,ACTAGACC,0.0632
7,AACTCGCC,0.00829
8,GGAGGCAC,-0.247
9,CACCTGTA,-0.17
10,ACTTACCG,0.222
11,ATACAAAG,0.119
12,GACAGAGC,-0.0868
13,AGAGGGTC,-0.143
14,AGGGAAAA,0.0188
15,AAAAAGGG,-0.0466
16,GCTACCCA,-0.178
17,AACTGGGA,-0.095
18,CTGCATTC,0.0297
19,AAGTCGTC,-0.133
20,CAACACAC,0.00259
21,TACCCCTA,-0.136
22,GGTCGGAC,0.259

row,Sequence,PBM E-score
1,CGCAAGCG,-0.256
2,AGCCGTTC,-0.0942
3,ATATCAAA,0.212
4,TAGATCTA,0.0822
5,AGTGTAGA,-0.106
6,CGCAGGGA,-0.229
7,CAGGCCTG,0.0399
8,ACTCGATG,0.0252
9,CCTCAGGA,-0.132
10,CCTTCTGA,0.112
11,ATCTAGAA,0.16
12,ACTCTTTC,0.111
13,ACTGGGTG,-0.266
14,GCTCGCAA,-0.101
15,AAAACCCA,0.151
16,CTTCGTAA,0.146
17,CCTAATAA,-0.0105
18,CATCTAGG,-0.0891
19,CCCCAAAA,-0.00242
20,ATATACGG,0.26
21,ATGATAAA,0.233
22,ATAAGCCC,-0.0621

row,Sequence,PBM E-score
1,GGATACGA,-0.134
2,TCTGTAAA,0.0742
3,ACCAAGGT,0.111
4,ACCATCCT,0.0495
5,CGCTGGGA,-0.192
6,AAATATCG,0.226
7,AGTGTTGG,0.0351
8,TAGGAAGA,-0.043
9,CGAGTACG,-0.191
10,CAACTACG,0.0309
11,GAGGCGCC,-0.112
12,CGTTGTTA,0.181
13,CACCCCAC,-0.0615
14,CGCACGCA,-0.0636
15,AGCTCGGA,0.336
16,GTATTTCA,0.191
17,CAGGGACA,-0.228
18,TATGCGGA,0.142
19,ACGGATTC,0.0978
20,AAGTCTCT,-0.167
21,AGACGGGC,-0.089
22,CAATGTGA,0.0926

row,Sequence,PBM E-score
1,GAGCTCAC,-0.207
2,ATCTACAG,0.0333
3,GCTGGCCA,-0.136
4,ACAGACAA,0.294
5,CCTACTTA,-0.0659
6,CACGGGCG,-0.294
7,CTAGGGTC,-0.225
8,AGTTGCTA,0.13
9,CAGACACA,-0.00031
10,ATCGGTAA,0.159
11,AGGCACAG,-0.0675
12,AGCCTTGA,0.0961
13,CGAGGCAA,0.0208
14,CGAATAAA,0.172
15,TCACTCGA,-0.0419
16,AACAGCGT,0.102
17,AATCAGCT,-0.0963
18,CAAACCCC,0.122
19,CGTGACGC,-0.121
20,GATAATGC,0.0761
